# ± gives the standard deviation of the averaged measurements. The list shows a part of the results.
# Tested on: PfAP2-G AP2 domain (GST-tagged)
# Assay: gcPBM binding intensity (ln(normalized median fluorescence intensity)); higher = stronger DNA binding
# Procedure, shortened: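 For binding intensity, the highest Masliner-normalised natural-log median intensity across replicate spots of either probe orientation was taken. Protein bound to the array was stained with Alexa488 anti-GST antibody and scanned at 488 nm. The protein, GST-tagged P. falciparum DNA-binding domains from E. coli at about 25 μg on average, had been applied for 1 h to an Agilent 4 × 180k array of primer-extended double-stranded 36-bp intergenic genomic probes and negative controls.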
row,Sequence,gcPBM binding intensity (ln)
1,AAAAAAATTAATATGTCAGCACATATATACATACAT [GTGCAC_negctrl_site110],10
2,TGTTAATTAAAACATCATTAATATTATTAAAAATAC [XGTACX_negctrl_site509],9.77 ± 0.057
3,TCTTTTTTTACTTTCTTTTTTTTTTTTTTTTTTTTT [XGTACX_negctrl_site610],10.7 ± 0.61
4,CAATACTAATTGTATACACACAAAAATATACCATAT [CACACA_site3326],10.3 ± 0.15
5,CCTTTATAAAAAAGTAGTACACAATGAATTTATAAT [XGTACX_site5523],11.8 ± 1
6,GAACCATTTTTTGGTATACACACGTAATTATATAAT [CACACA_site8552],10.3 ± 0.18
7,TTTTTACATACAAATTAACACACATATAGAAAAGAG [CACACA_site8570],10.5 ± 0.4
8,AATTGATACCTTACATGTACATAATATATATAAATA [XGTACX_site321],11.2 ± 0.72
9,AAATTATTTATATGTTGTACTTATCCATTTTTATAA [XGTACX_site7441],11.2 ± 0.68
10,TATATTTATAGACACACACACAAAAAAAAAAAAAAA [CACACA_site6818],9.93 ± 0.49
11,TAATTTTTTTTATTATGTACTTAATAAATGTTAATT [XGTACX_site365],11.2 ± 0.96
12,TATTTATAATTAAATACACACATATATTATATATTT [CACACA_site616],9.83 ± 0.014
13,AATAAACATATATGTACACACATATACATATATATA [CACACA_site2848],11.4 ± 1.2
14,TTTTTTTTTAATTATGCATGTAAATTATATATTATA [TGCATGCA_site335],9.8 ± 0.15
15,AAGAATGTTATATTATGATGCTGTCTTTTTTTAAGA [CACACA_negctrl_site251],9.715 ± 0.035
16,ATAAAATATTATATATATATATATATATATATATAT [CACACA_negctrl_site215],10.1 ± 0.91
17,TTAGCTACACGCTAATGTACACAAATACAAAGAAAA [XGTACX_site3993],11.4 ± 0.71
18,TATACGCATATATAAACACACAAAAAAAAAAAAAAA [CACACA_site2026],9.8 ± 0.52
19,TATATTAATTTATATCAACACACAAAATCAATATAC [CACACA_site8518],10 ± 0.28
20,ACATAAATAATAAAAACACACATATGTACTTATATA [CACACA_site8581],11.4 ± 0.87
21,TTATTAATTTTTATTTTTAAATCACAAAAGATATAA [CACACA_negctrl_site787],9.79 ± 0.32
22,AAACAAAAAAACTACAGTACTTTTTTCAATTCCCCT [XGTACX_site7541],11.3 ± 0.71

row,Sequence,gcPBM binding intensity (ln)
1,AAAATTAACCGTAACACACACACATATATATATATA [CACACA_site3964],10.3 ± 0.47
2,TATATGTTTACTTAATGTACTTACATTTTTATAACA [XGTACX_site1100],11.4 ± 0.88
3,AAATTTTTAAACAGCACACATAAATATAATATATAT [CACACA_site2208],9.99 ± 0.085
4,CATATTTGTATATGCACACATAAATTTTTCCATTTC [CACACA_site3467],10.1 ± 0.071
5,GACATTAAAATGAAATATACATATATATGTATATAT [TGCATGCA_negctrl_site601],9.635 ± 0.049
6,TTACATTTTTGAAATAGATACATACACGTGTATGTA [CACACA_negctrl_site1311],9.975 ± 0.092
7,GCTATATATTACAATCGTACAATATATATATATATA [XGTACX_site6730],10.8 ± 0.68
8,AATTGAAAAATCAGCACACACACAAATACATACATA [CACACA_site3232],10.3 ± 0.31
9,TGGTAATACACATACACACACACATACACATATATA [CACACA_site7312],10.3 ± 0.29
10,ATATATATATATATTACACACATGTGCAATTAAAAT [CACACA_site1778],10.2 ± 0.28
11,AATATAAGAATATATACACACATAAATACATACATA [CACACA_site4128],9.91 ± 0.16
12,TTTTTAAAACCTTACATACACACAAATATATATATA [CACACA_site678],10.2 ± 0.41
13,TGAATTCATAGCAGTTGTACATTGCATGAAGAAACG [XGTACX_site3312],11 ± 0.63
14,TGTTCCGAAGGTTGTACACACATAGAAATATACATA [CACACA_site3874],11.6 ± 0.74
15,TCTTGTATACGGCATGCATGTTAGCACATACGGACA [TGCATGCA_site146],10.9 ± 0.59
16,TATAAAATATGTATGAGGAATAAAATTAAAAAAAAA [TGCATGCA_negctrl_site178],9.77 ± 0.071
17,AAAAAAAAAAATTCGGTGCAATGTAATTAATGTAAA [GTGCAC_site9588],9.82 ± 0.071
18,AATACTTTTTATTTAGTGCATAAGAAAATATAAATC [GTGCAC_site9875],10.2 ± 0.18
19,ATGGATAATAATAAGTGTACACATATATTTAGAAGA [XGTACX_site244],11.8 ± 0.86
20,GGTAGAAAATCAGTTAAACACACACCGAAAAAAAAA [CACACA_site8934],10.1 ± 0.2
21,ATTTGTATAATAAGTTGTACAATTCTTACAATATAA [XGTACX_site4164],11.3 ± 0.73
22,AAAAAAAAAAAAAGCACACACACATATGCGTATATA [CACACA_site953],10.34 ± 0.057

row,Sequence,gcPBM binding intensity (ln)
1,TTTAAGCGTTCACTGCTGCACTTTTATGTTGTGACC,10.35 ± 0.099
2,TTACAAATGTAGAAAAGTACATATAATAATAATTTA [XGTACX_site3044],11.3 ± 0.83
3,TATAAGAAATAAAACCTGATTATAAACCTGTAACCA [CACACA_negctrl_site1302],9.79 ± 0.11
4,ATATAATATGTTGAATGTACTTAAAAAAATGTATCT [XGTACX_site5385],11.3 ± 0.77
5,AAAAAAAAAAAAAAAACACACATGTATACTAGAATA [CACACA_site7108],10.2 ± 0.17
6,TTAAGTTACAATTCTCGTACACATTAAAAGAAAATT [XGTACX_site699],11.3 ± 0.99
7,TAAATATAACAGAATAATATGTGGATTAATAAATGA [CACACA_negctrl_site438],9.82 ± 0.099
8,CGCTTTATTTATATATGTACATATATATATATATAC [XGTACX_site5012],11.3 ± 0.58
9,AAATTTTTTTTTTAATTTTTTATTTAAAAAAAATAT [TGCATGCA_negctrl_site174],9.585 ± 0.007
10,GTTATAAATAAATATACACACATATATAAAATACAT [CACACA_site7146],10 ± 0.13
11,TATAACATAAAACACACACACATACATACACAAAAA [CACACA_site1804],10.2 ± 0.27
12,GTTATACACATTACATGTACAAAAGTTGCACTTCAT [XGTACX_site6023],10.9 ± 0.45
13,GTTGCCATCATTTGGCGTACAGTCAAAACCAAATCT [XGTACX_site1398],11.6 ± 0.96
14,AAGGCAAACAGACACACACACATATATACCTATATA [CACACA_site7077],10.2 ± 0.22
15,TCTATTAAAACAAATTGTACTTATTGATAAAGAATA [XGTACX_site3645],11.2 ± 0.81
16,ATTTTTATTTTATATACACACAATAATAATATAATA [CACACA_site4015],10.1 ± 0.37
17,TTTGTTCAATTTACATGTACAGATATAATCTAACAT [XGTACX_site370],11.1 ± 0.83
18,AAGAGCAACCAAATAGAAAAAGGAAAATAAAAGGAA [CACACA_negctrl_site100],9.76 ± 0.028
19,AACCTATCTATAGGAACAATATATATATATATAATT [CACACA_negctrl_site1707],9.755 ± 0.035
20,TATTATGCTATTTAATGTACGGAATTTATATATATA [XGTACX_site564],10.9 ± 0.61
21,TTGCTCATTGAAATTATACACACCAAATATATAAAT [CACACA_site2482],9.99 ± 0.085
22,ATATGTTTTAAGTGTACACATATAATGTATTTTGTT [CACACA_site4929],11.6 ± 0.9

row,Sequence,gcPBM binding intensity (ln)
1,AAAAGGGAAAAAATTAAAATTATATATATATATATG [CACACA_negctrl_site137],9.54 ± 0.11
2,TACATATATTTAAGGAGTACAAAAAATAATGATAAA [XGTACX_site3539],11.4 ± 0.95
3,AAAATATATAAACGCACATATATTTATGTATATATA [CACACA_negctrl_site163],9.98 ± 0.057
4,TAAAAAAAAACATGATGTACATAAAATTTTTTACTT [XGTACX_site7056],11.3 ± 0.8
5,AATATATAAACATATACACACAAAAACATATATATA [CACACA_site4855],9.95 ± 0.085
6,CAACAACAAATGAGAAGTACATAAATATTAACAATA [XGTACX_site4625],11.3 ± 0.71
7,TTATAATACCTACAAAGTACAAACTTAAATATGAAC [XGTACX_site5684],11 ± 0.76
8,TTGCTTTTCATTTATTGTACATACCCAGTAGGATAA [XGTACX_site3939],11.1 ± 0.6
9,GACATAGTATTAAGTTGTACATATATAAAAATAAAT [XGTACX_site1583],11.3 ± 0.81
10,ATGTTTTCAAAAATAAAACATATAAATAAATAAATA [TGCATGCA_negctrl_site226],9.83 ± 0.21
11,AATGTACACGCACCCACACACAAACAAATATAAATA [CACACA_site7319],11.4 ± 1
12,TTACGAATGAATATATGTACATATATATATATATAT [XGTACX_site3790],11.4 ± 0.61
13,GTGAAGTTCAAAATATGTACTTATGTATGTATTTTT [XGTACX_site165],11.2 ± 0.86
14,TTATGTTTCATAAAAAATTAATCAAACATATATAAG [CACACA_negctrl_site666],9.635 ± 0.021
15,TTATGGATGGACAATAATAAAATTTTTACTTTTATT [CACACA_negctrl_site908],10.4 ± 0.24
16,AAAAAAAAGAATTAGGCACACAATTTTAATATAGGA [CACACA_site1522],10.04 ± 0.042
17,GCATACATCAAGCACACACACACACGCACACGCACA [CACACA_site6311],10.3 ± 0.32
18,ACTACGAATGGTAGAGTGCAGTCTGGAGAAGAGTAC [GTGCAC_site9685],10.8 ± 0.51
19,AAAAAAAAAATTATATATATATCCCTTATTTTTTCT [TGCATGCA_negctrl_site151],9.62 ± 0.014
20,CATACACAGAAACACACACACATATATACATATATA [CACACA_site1094],10 ± 0.24
21,TCATATATATTGAAATGTACTTATTTTTTCCTCATA [XGTACX_site6526],11.3 ± 0.76

# From the supplement of paper PMC11417369
